# Assay results: publication PMC4336329 (PLoS ONE, 2015)
# Out of some 310,000 compounds screened, about 14,000 (4.5%) showed an effect of 50% or more. The effect is printed as a negative number. This is one part of the list.
# Molecular target: human ether-à-go-go-related gene (hERG) potassium channel (human, UniProt Q12809)
# Assay: primary screen, population patch clamp on CHO cells stably expressing hERG
# 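Further: peak tail current of the secondary pulse compared with the same well before compound.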
# human ether-à-go-go-related gene (hERG) potassium channel, sequence (Q12809 whole entry, looked up): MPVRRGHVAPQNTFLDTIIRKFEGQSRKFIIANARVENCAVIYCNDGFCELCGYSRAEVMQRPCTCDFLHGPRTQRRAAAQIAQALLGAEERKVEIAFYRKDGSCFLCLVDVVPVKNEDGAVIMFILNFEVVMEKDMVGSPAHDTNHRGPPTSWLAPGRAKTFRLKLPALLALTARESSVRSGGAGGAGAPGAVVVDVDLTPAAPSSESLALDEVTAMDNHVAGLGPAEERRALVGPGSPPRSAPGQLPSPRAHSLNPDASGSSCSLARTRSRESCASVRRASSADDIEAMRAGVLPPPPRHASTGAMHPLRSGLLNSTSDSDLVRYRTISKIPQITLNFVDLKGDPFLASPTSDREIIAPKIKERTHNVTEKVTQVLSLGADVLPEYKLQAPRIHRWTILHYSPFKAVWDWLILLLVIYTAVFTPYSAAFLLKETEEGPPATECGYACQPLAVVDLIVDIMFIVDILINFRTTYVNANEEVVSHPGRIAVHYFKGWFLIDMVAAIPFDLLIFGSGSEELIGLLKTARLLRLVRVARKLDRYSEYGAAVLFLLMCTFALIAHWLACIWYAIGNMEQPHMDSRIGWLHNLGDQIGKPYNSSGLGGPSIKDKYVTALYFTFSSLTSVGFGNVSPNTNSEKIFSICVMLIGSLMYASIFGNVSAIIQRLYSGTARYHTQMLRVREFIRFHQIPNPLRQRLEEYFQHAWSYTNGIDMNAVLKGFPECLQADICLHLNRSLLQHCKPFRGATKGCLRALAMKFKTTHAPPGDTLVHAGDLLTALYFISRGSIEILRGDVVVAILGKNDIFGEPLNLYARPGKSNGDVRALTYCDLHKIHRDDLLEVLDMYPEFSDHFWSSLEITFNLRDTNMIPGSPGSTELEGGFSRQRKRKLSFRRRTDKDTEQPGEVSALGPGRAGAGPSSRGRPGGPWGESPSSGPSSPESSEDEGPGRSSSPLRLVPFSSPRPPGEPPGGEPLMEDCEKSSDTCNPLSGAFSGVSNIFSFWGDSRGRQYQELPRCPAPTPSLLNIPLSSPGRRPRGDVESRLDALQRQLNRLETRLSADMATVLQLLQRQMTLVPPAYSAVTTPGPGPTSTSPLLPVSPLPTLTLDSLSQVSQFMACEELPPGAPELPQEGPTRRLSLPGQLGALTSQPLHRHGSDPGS
row,Structure (SMILES),"hERG current change (%, negative = inhibition) at 10uM [%]"
1,C=CCNCCCCOc1ccc(Br)cc1C.O=C(O)C(=O)O,-41
2,CCOC(=O)N1CCN(C(=O)CCc2c(C)nc3c(c(C)nn3-c3ccc(C)c(C)c3)c2C)CC1,-22
3,CCOC(=O)c1ccc(-c2cccc(C(F)(F)F)c2)nc1C,4.81
4,Cc1ccc(N2C(=O)N(CC(=O)Nc3cccc([N+](=O)[O-])c3C)C(=O)C2C)cc1 (stereo not drawn),-20.1
5,C/C(O)=C\c1nc2ccccc2oc1=O,11.6
6,O=C(N/N=C/c1ccc([N+](=O)[O-])o1)c1cc(-c2ccncc2)nc2ccccc12,-62.9
7,Cc1ccc(S(=O)(=O)N/N=C\c2ccc([N+](=O)[O-])o2)cc1C,6.17
8,COc1cccc(CSc2nnc(-c3ccco3)n2C)c1,-3.51
9,COc1ccc(C(CNC(=O)c2oc3ccc(Cl)cc3c2C)N2CCCCC2)cc1 (stereo not drawn),-25.9
10,CCCNC(=O)C(Cc1ccccc1)NC(=O)c1cccc([N+](=O)[O-])c1 (stereo not drawn),5.7
11,CC1CC(C)CN(S(=O)(=O)c2ccc3c(c2)CC(C)N3C(=O)C2CC2)C1 (stereo not drawn),2.09
12,O=C(CSc1nnc(SCc2ccccc2Cl)s1)N/N=C/c1c[nH]c2ccccc12,5.11
13,COc1cccc(NC(=O)CN(C)C(=O)c2ccc(N3CCCCC3)c([N+](=O)[O-])c2)c1,-12.9
14,Cc1ccc(C)c(NCC(=O)c2ccc(Cl)cc2)c1,21.7
15,Cc1ccc(S(=O)(=O)NCc2ccncc2)c(C)c1C,17.5
16,O=C(COC(=O)c1ncc(Cl)c(Cl)c1Cl)NC1CCS(=O)(=O)C1 (stereo not drawn),-25.5
17,CC(C)NC(=O)C(c1ccc(F)cc1)N(C(=O)CCC(=O)Nc1ccccn1)C1CCCCC1 (stereo not drawn),-4.26
18,CCOC(=O)CC(=O)CSc1ncc(C(=O)OCC)c(N)n1,-0.281
19,N#Cc1c(SCC(N)=O)nsc1SCc1ccc(Cl)cc1,-0.34
20,Cc1ccc(CCNC(=O)C2CC(c3cccc(F)c3)=NO2)cc1 (stereo not drawn),0.919
21,COC(=O)c1c(NC(=O)CN2CCC(C(N)=O)CC2)c2c(C)cccc2n1C,4.22
22,CCc1ccc(C2CC(c3ccco3)=NN2S(C)(=O)=O)cc1 (stereo not drawn),9.31

row,Structure (SMILES),"hERG current change (%, negative = inhibition) at 10uM [%]"
1,O=C(Cc1ccc(S(=O)(=O)N2CCOCC2)s1)NCC(=O)Nc1ccccc1Br,-2.67
2,O=C(CN1C(=O)NC(Cc2ccccc2)C1=O)Nc1ccccc1 (stereo not drawn),6.7
3,COc1ccc(N(CC(=O)NCCOc2ccccc2)S(=O)(=O)c2ccc(C)cc2)cc1,-54.8
4,Cc1ccc(N2CC(=O)N(NC(=O)c3sc4nc(C)cc(C)c4c3N)CC2=O)cc1,14.2
5,Cc1cc(C)nc(SCC(=O)Nc2ncc(Cc3ccc(Cl)c(Cl)c3)s2)n1,-4.72
6,CN(C)C(CNC(=O)c1ccc2c(=O)n(-c3ccccc3F)c(=S)[nH]c2c1)Cc1ccccc1 (stereo not drawn),4.97
7,O=C1/C(=C/c2ccccc2Cl)N2CCC1CC2,-14.1
8,Cc1ccnc(NS(=O)(=O)c2ccc(NC(=O)C34CC5CC(C)(CC(C)(C5)C3)C4)cc2)n1,-9.93
9,COc1ccc(NC(=O)c2cc(C(C)C)on2)cc1OC,9.04
10,COC(=O)c1sc2ccccc2c1-n1cccc1C(=O)C(=O)Nc1ccc(Cl)cc1,0.698
11,C/C(CC(=O)NC12CC3CC(CC(C3)C1)C2)=N\NC(=O)Cc1cccs1,0.292
12,Cc1cccc(C)c1NC(=S)N(C)CCc1ccccn1,3.68
13,COc1cc2c(c(OC)c1OC)CCc1cnoc1-2,-1.27
14,Cc1cc(C)[n+](CCCC[n+]2c(C)cc(C)cc2C)c(C)c1.[O-][Cl+3]([O-])([O-])[O-],2.24
15,O=C(N/C(=C\c1cccc([N+](=O)[O-])c1)C(=O)N(CCO)CCO)c1ccco1,13.4
16,Cc1ccc(CCNC(=O)C2CCCN(C(=O)c3cc4sccc4n3C)C2)cc1 (stereo not drawn),-15.4
17,CC(C)OC(=O)C(C#N)c1nc2ccccc2nc1N1CCN(Cc2ccccc2)CC1 (stereo not drawn),-18.6
18,CC1CCCC(C)N1C(=O)c1cc(-c2ccco2)on1 (stereo not drawn),-3.06
19,Cn1c(N)c(C(=O)COC(=O)CNC(=O)c2ccccc2Cl)c(=O)n(C)c1=O,-14.7
20,Cc1cc2c(cc1S(=O)(=O)NCc1ccccc1)n(C)c(=O)c(=O)n2C,-10.9
21,Cl.O=C(NCCN1CCOCC1)c1cn(-c2ccccc2)nc1-c1cccs1,-25.6
22,Cc1cccc(C)c1NC(=O)CNC(=O)c1ccc2ccccc2n1,-2.51

row,Structure (SMILES),"hERG current change (%, negative = inhibition) at 10uM [%]"
1,O=c1c2nnn(-c3ccc(Cl)cc3)c2ncn1Cc1ccccn1,-6.29
2,Cc1cc(C)c(NC(=O)CNC(=O)c2cc([N+](=O)[O-])ccc2N2CCOCC2)c(C)c1,-9.25
3,COc1ccc(/C=C/c2onc(C)c2S(=O)(=O)N2CCC(C(=O)N3CCC(C)CC3)CC2)cc1,15.8
4,Cc1occc1C(=O)N1CCN(S(=O)(=O)c2ccc(F)cc2)CC1,-11.3
5,O=C1CCc2cc(S(=O)(=O)NCc3ccccc3)cc3c2N1CC3,-8.97
6,Cc1ccc(NC(=O)NNC(=O)c2cccs2)cc1,-24.6
7,CN(CC(=O)Nc1ccc(N2CCOCC2)cc1)CC(=O)Nc1ccc(N2CCOCC2)cc1,6.39
8,Cc1cc(NS(=O)(=O)c2ccc(NC(=S)NCc3ccccc3)cc2)no1,20.2
9,O=C(Nc1ccc(N2CCOCC2)cc1)C1(S(=O)(=O)c2ccccc2)CC1,2.77
10,N#Cc1cn(CCOc2ccccc2F)c2ccccc12,-6.19
11,COc1ccc(CCC(=O)NC(C)C)cc1,-6.2
12,COc1ccc(S(=O)(=O)Nc2c(O)c3ccccc3oc2=O)cc1,18
13,CCCn1c(=O)c2c(ncn2C)n(CCC)c1=O,3.68
14,CC(C)c1ccc(C(=O)N(c2ccccn2)C(C)c2ccco2)cc1 (stereo not drawn),-21.8
15,O=C(C(Cl)Cl)N1CCN(Cc2ccc3c(c2)OCO3)CC1,12.3
16,O=C(Nc1ccc(Cl)cc1)OCc1cc(-c2ccccc2)on1,15.7
17,Cc1ccccc1OCC(=O)NNC(=O)C1CCCCC1C(=O)O (stereo not drawn),8.94
18,Cc1ccc(CC(=O)N2CCN(Cc3ccccc3)CC2)cc1,4.07
19,Cc1nnc(SCC(=O)c2ccc(Cl)cc2)s1,-9.82
20,CC(C)OC(=O)CSc1nc2c(cc1C#N)CCCCC2,19.6
21,O=[N+]([O-])c1ccc(/C=[N+](\[O-])CCO)o1,19.4
22,Cc1ccc(C(=O)NC(=S)Nc2cc(C(F)(F)F)ccc2Cl)cc1,20.3

row,Structure (SMILES),"hERG current change (%, negative = inhibition) at 10uM [%]"
1,CCCCNC(=O)C1CC(c2ccc(C(F)(F)F)cc2)=NO1 (stereo not drawn),3.73
2,CC1CCCCC1NC(=O)c1cn(C)c2ccc(S(=O)(=O)N3CCCC3)cc2c1=O (stereo not drawn),-0.37
3,C/C(=N/NC(=O)CN1CCN(Cc2ccccc2Cl)CC1)c1ccncc1,-65.4
4,Cl.N[C@@H](Cc1c[nH]c2ccccc12)c1nnc(SCc2c(F)cccc2Cl)o1,1.99
5,COc1ccc(NC(=O)C2CCCN(CCCc3ccccc3)C2)cc1OCC(C)C.O=C(O)/C=C/C(=O)O (stereo not drawn),-52.1
6,CC1=NN(C(C#N)c2ccccc2)C(C)(C)C1 (stereo not drawn),-18.8
7,Cc1ccc(S(=O)(=O)N2CCOCC2)cc1NC(=O)COc1cccc(Oc2ccccc2)c1,-10.5
8,COC(=O)Cn1nc(-c2ccccc2)n(-c2ccccc2)c1=S,-0.945
9,Cc1ccc(N2CCN(C(=O)N3CCCC3)CC2)cc1C,-7.29
10,O=C(Nc1cccc2ccccc12)N1CCCN(c2c(Cl)cncc2Cl)CC1,5.78
11,CC1=Nn2c(nnc2C2CCCCC2)SC1,-2.36
12,COc1ccc(/C=C/C=N/NC(=O)COc2ccc(OC)cc2)cc1,1.85
13,Cc1nc(C)c(C(=O)NNC(=O)c2ccc(Br)cc2)s1,13.7
14,Cc1cccc(/C(N)=N/OC(=O)c2cccs2)c1,8.03
15,Cc1nc(-c2cccc(S(=O)(=O)N3CCCCC3)c2)cs1,-21
16,CCn1c(SCC(=O)N(C(C)C)C(C)C)nnc1-c1cc2ccccc2cc1O,-8.52
17,CCOC(=O)c1cc(-c2csc(N/N=C/c3ccccc3Cl)n2)on1,2.19
18,COc1ccc(C(CNC(=O)c2cccc(S(=O)(=O)Nc3cccc(C)c3)c2)N2CCOCC2)cc1 (stereo not drawn),-13.6
19,CCCOc1ccc(-c2c(C(=O)N/N=C(\C)c3cccnc3)nnn2-c2nonc2N)cc1,21.6
20,COC(=O)c1ccc(NC(=O)CSc2nc(=O)cc(N)n2-c2ccccc2)cc1,12.8
21,Cc1c(NC(=O)CSc2nnc(-c3ccncc3)o2)c(=O)n(-c2ccccc2)n1C,0.168
